Some of the results follow. Repeats are few or missing, and single values can be far off.
Key:
Assay in all cases: cell count relative to DMSO control; melanoma cells; higher = more viable cells
Conditions in all cases: library dose: standard library concentration; 72 h
[1] = tested on: G361
[2] = tested on: IPC-298
[3] = tested on: IST-MEL1
[4] = tested on: LB2518-MEL
[5] = tested on: LOXIMVI
[6] = tested on: MEL-HO
[7] = tested on: MZ2-MEL
[8] = tested on: MeWo
[9] = tested on: RPMI7951
[10] = tested on: RVH-421
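Note: cells treated in 1,536-well plates, then fixed and DAPI-stained, with nuclei counted from automated high-throughput microscope images.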

SMILES | cell count [1] | cell count [2] | cell count [3] | cell count [4] | cell count [5] | cell count [6] | cell count [7] | cell count [8] | cell count [9] | cell count [10]
Cc1cc(Nc2cc(N3CCN(C)CC3)nc(Sc3ccc(NC(=O)C4CC4)cc3)n2)n[nH]1 [Tozasertib] + O=C(Nc1cccc(Cl)c1)Nc1ncc(CCNc2ncnc3ccsc23)s1 [SNS314] (first compound 0.03 µM, partner dose 0.004 µM) | 40.7% | 64.1% | 43.8% | 68.4% | 69.6% | 57.9% | 72% | 36% | 52.4% | 62.2%
Cc1cc(Nc2cc(N3CCN(C)CC3)nc(Sc3ccc(NC(=O)C4CC4)cc3)n2)n[nH]1 [Tozasertib] + CN1CCN(c2ccc3nc(-c4c(N)c5c(F)cccc5[nH]c4=O)[nH]c3c2)CC1 [Dovitinib] (first compound 0.03 µM, partner dose 0.5 µM) | 66.2% | 62.7% | 66.5% | 59.4% | 90.4% | 64.4% | 42.3% | 41.1% | 71.2% | 80.5%
N#CC[C@H](C1CCCC1)n1cc(-c2ncnc3[nH]ccc23)cn1 [ruxolitinib] + Cc1cc([N+](=O)[O-])ccc1NS(=O)(=O)c1cc(Cl)ccc1Cl [FH535] (first compound 5 µM, partner dose 5 µM) | 40.2% | 46.1% | 67.7% | 88.9% | 124% | 49.5% | 61.9% | 58% | 72% | 72.4%
N#CC[C@H](C1CCCC1)n1cc(-c2ncnc3[nH]ccc23)cn1 [ruxolitinib] + COc1ccc(C2=N[C@@H](c3ccc(Cl)cc3)[C@@H](c3ccc(Cl)cc3)N2C(=O)N2CCNC(=O)C2)c(OC(C)C)c1 [Nutlin-3] (first compound 5 µM, partner dose 0.5 µM) | 70% | 104% | 108% | 121% | 69.3% | 98.7% | 104% | 108% | 81.7% | 73.6%
N#CC[C@H](C1CCCC1)n1cc(-c2ncnc3[nH]ccc23)cn1 [ruxolitinib] + NC(=O)Nc1cc(-c2cccc(F)c2)sc1C(=O)N[C@H]1CCCNC1 [AZD7762] (first compound 5 µM, partner dose 0.1 µM) | 68.8% | 103% | 97.4% | 76.3% | 63.9% | 77.8% | 106% | 77.1% | 50.4% | 104%
CC[C@]1(O)C[C@H]2CN(CCc3c([nH]c4ccccc34)[C@@](C(=O)OC)(c3cc4c(cc3OC)N(C=O)[C@H]3[C@@](O)(C(=O)OC)[C@H](OC(C)=O)[C@]5(CC)C=CCN6CC[C@]43[C@@H]65)C2)C1 [vincristine] + CCc1ccc(CCOc2ccc(CC3SC(=O)NC3=O)cc2)nc1 [pioglitazone] (first compound 0.0005 µM, partner dose 10 µM) | 22.5% | 50% | 43.2% | 53.5% | 52.2% | 45.8% | 33.8% | 20% | 17.3% | 33.5%
N#CC[C@H](C1CCCC1)n1cc(-c2ncnc3[nH]ccc23)cn1 [ruxolitinib] + CCc1ccc(CCOc2ccc(CC3SC(=O)NC3=O)cc2)nc1 [pioglitazone] (first compound 5 µM, partner dose 10 µM) | 77.4% | 91.7% | 98.4% | 116% | 190% | 72.3% | 78.4% | 77.6% | 91% | 72.4%
N#CC[C@H](C1CCCC1)n1cc(-c2ncnc3[nH]ccc23)cn1 [ruxolitinib] + O=c1cc(-c2cccc3c2Sc2ccccc2S3)oc(N2CCOCC2)c1 [KU55933] (first compound 5 µM, partner dose 5 µM) | 65.8% | 86.4% | 88.2% | 104% | 94.3% | 74.2% | 93.8% | 78.7% | 67.2% | 121%
CC[C@]1(O)C[C@H]2CN(CCc3c([nH]c4ccccc34)[C@@](C(=O)OC)(c3cc4c(cc3OC)N(C=O)[C@H]3[C@@](O)(C(=O)OC)[C@H](OC(C)=O)[C@]5(CC)C=CCN6CC[C@]43[C@@H]65)C2)C1 [vincristine] + CC(C)(C)c1cnc(CSc2cnc(NC(=O)C3CCNCC3)s2)o1 [SNS-032] (first compound 0.0005 µM, partner dose 0.05 µM) | 89.1% | 115% | 86.5% | 89.7% | 64.8% | 107% | 104% | 72.1% | 8.14% | 99.4%
CC[C@]1(O)C[C@H]2CN(CCc3c([nH]c4ccccc34)[C@@](C(=O)OC)(c3cc4c(cc3OC)N(C=O)[C@H]3[C@@](O)(C(=O)OC)[C@H](OC(C)=O)[C@]5(CC)C=CCN6CC[C@]43[C@@H]65)C2)C1 [vincristine] + Cn1nnc2c(C(N)=O)ncn2c1=O [temozolomide] (first compound 0.0005 µM, partner dose 10 µM) | 124% | 108% | 96.4% | 108% | 90.9% | 120% | 101% | 106% | 75.4% | 80.7%
Cc1cc(Nc2cc(N3CCN(C)CC3)nc(Sc3ccc(NC(=O)C4CC4)cc3)n2)n[nH]1 [Tozasertib] + COCC[n+]1c2c(n(Cc3cnccn3)c1C)C(=O)c1ccccc1C2=O [YM155] (first compound 0.03 µM, partner dose 0.002 µM) | 73.1% | 55.9% | 49.2% | 26.8% | 61.2% | 82.9% | 31% | 34.1% | 41.9% | 378%
Cc1cc(Nc2cc(N3CCN(C)CC3)nc(Sc3ccc(NC(=O)C4CC4)cc3)n2)n[nH]1 [Tozasertib] + CCCCCCCCCCCCCCCCCCOP(=O)([O-])OC1CC[N+](C)(C)CC1 [Perifosine] (first compound 0.03 µM, partner dose 2 µM) | 79.7% | 90.6% | 79.4% | 69.8% | 78.3% | 95.8% | 72.8% | 96% | 16% | 78.6%
Cc1cc(Nc2cc(N3CCN(C)CC3)nc(Sc3ccc(NC(=O)C4CC4)cc3)n2)n[nH]1 [Tozasertib] + CCCCCCCCCCCC1=C(O)C(=O)C=C(O)C1=O [Embelin] (first compound 0.03 µM, partner dose 6 µM) | 72.6% | 84.5% | 56.3% | 79.8% | 87.6% | 67.2% | 73.1% | 82% | 68.5% | 73.2%
Cc1cc(Nc2cc(N3CCN(C)CC3)nc(Sc3ccc(NC(=O)C4CC4)cc3)n2)n[nH]1 [Tozasertib] + CCCS(=O)(=O)Nc1ccc(F)c(C(=O)c2c[nH]c3ncc(Cl)cc23)c1F [PLX4720] (first compound 0.03 µM, partner dose 0.4 µM) | 48.1% | 64.6% | 73.8% | 66.7% | 93.7% | 79.2% | 55.7% | 68.2% | 71.2% | 67.2%
N#CC[C@H](C1CCCC1)n1cc(-c2ncnc3[nH]ccc23)cn1 [ruxolitinib] + O=C(O)[C@@H]1[O][Sb](=[O])([O][Sb]2(=[O])[O][C@H]([C@H](O)CO)[C@H](O)[C@H](C(=O)O)[O]2)[O][C@H]([C@H](O)CO)[C@@H]1O [stibogluconate] (first compound 5 µM, partner dose 10 µM) | 73.8% | 99.7% | 96.1% | 142% | 105% | 64.2% | 71.6% | 85.3% | 74.1% | 68.4%
N#CC[C@H](C1CCCC1)n1cc(-c2ncnc3[nH]ccc23)cn1 [ruxolitinib] + COc1ccc(Cl)c(Nc2nc3ccccc3nc2NS(=O)(=O)c2cccc(NC(=O)C(C)(C)N)c2)c1 [XL147] (first compound 5 µM, partner dose 4 µM) | 71.1% | 82.8% | 74.7% | 119% | 139% | 61% | 90.5% | 84.2% | 87.4% | 74%
N#CC[C@H](C1CCCC1)n1cc(-c2ncnc3[nH]ccc23)cn1 [ruxolitinib] + COc1ccc(-c2ccc3c(N4CCOCC4)nc(N4C[C@@H](C)O[C@@H](C)C4)nc3n2)cc1CO [KU0063794] (first compound 5 µM, partner dose 0.1 µM) | 83.9% | 78.9% | 95.8% | 122% | 77% | 87.1% | 81% | 80.3% | 96.6% | 89.4%
Cc1cc(Nc2cc(N3CCN(C)CC3)nc(Sc3ccc(NC(=O)C4CC4)cc3)n2)n[nH]1 [Tozasertib] + Cc1ccc(Nc2nccc(N(C)c3ccc4c(C)n(C)nc4c3)n2)cc1S(N)(=O)=O [Pazopanib] (first compound 0.03 µM, partner dose 2 µM) | 77% | 62.2% | 94% | 70.8% | 78.6% | 90.7% | 60.2% | 89.3% | 79.6% | 156%
Cc1cc(Nc2cc(N3CCN(C)CC3)nc(Sc3ccc(NC(=O)C4CC4)cc3)n2)n[nH]1 [Tozasertib] + NCC(=O)Nc1ccc(-n2nc(C(F)(F)F)cc2-c2ccc3c(ccc4ccccc43)c2)cc1 [OSU03012] (first compound 0.03 µM, partner dose 5 µM) | 76.1% | 64.1% | 98.7% | 82.1% | 62.6% | 92.7% | 86% | 84.5% | 119% | 80.1%
N#CC[C@H](C1CCCC1)n1cc(-c2ncnc3[nH]ccc23)cn1 [ruxolitinib] + CCCCCCCCCCCC1=C(O)C(=O)C=C(O)C1=O [Embelin] (first compound 5 µM, partner dose 6 µM) | 62% | 69.8% | 60.3% | 100% | 82.6% | 58.7% | 91.5% | 77.6% | 77.3% | 60.2%

— the supplement of paper PMC4604168 (melanoma cell lines)
